Hit rate of the full screen: of about 52,000 compounds, about 1,700 (3.3%) were called active. Cut-off read from the data, not from the text of the source: active = survival mostly below about 52% (no sharp cut-off); inactive = mostly above about 56%. The list shows a part of the results.

This assay concerns Wild type. The assay is described as follows: growth inhibition of S. aureus wild type versus tarO mutant, primary screen, teichoic acid synthesis inhibitors, RN4220, OD600 (AID 463173). The settings on record: S. aureus RN4220 wild type/DeltatarO growth, OD600, 18 h, hits give low values, screened at 18.75 µg/mL (by protocol).
With `COC(=O)c1ccc(OC2OCCOC2Oc2ccc(C(=O)OC)cc2)cc1` (stereo not drawn), the survival was inactive: 112%.

Consider `Cn1c(SCCC(=O)O)nc2ccccc21`, for which the survival is inactive: 110%.

In the case of `CCNC(=S)N1CCN(C(=O)c2ccco2)CC1`, the survival is inactive: 102%.

In the case of `COc1ccc(-c2nnc(SCc3nnc(-c4ccccc4)o3)o2)cc1OC`, the survival was inactive: 106%.

For `COc1cccc(OC)c1Cn1nnc2c(=O)[nH]c(C3CCN(C(=O)c4ccccc4)CC3)nc21`, the survival was inactive: 76%.

For the compound `CSc1ccc(CCNC(=O)c2ccc3c(c2)nc2n3CCOC2)cc1`, the survival was inactive: 55%.

Regarding `CCOC(=O)c1c(NC(=O)c2nc(SC)ncc2Cl)sc(C)c1C`, the survival was inactive: 88%.

In the case of `Cc1cc(NC(=O)CN2C(=O)CSc3ccc(S(=O)(=O)N(C)C)cc32)ccc1Br`, the survival is inactive: 92%.

As to `Cc1cc(C)nc(SCC(N)=O)n1`, the survival was inactive: 101%.

As for `COc1ccc(Cl)cc1NC(=O)CSc1cn(CC(=O)N2CCCC2)c2ccccc12`, the survival was inactive: 96%.

Turning to `COc1ccccc1CNC(=O)c1cc2c(=O)n(Cc3cccs3)ccc2nc1C`, the survival was inactive: 77%.

For `Cc1ccc(-n2c(SCC(=O)N3CCC(C)CC3)nc3c([nH]c4ccccc43)c2=O)cc1`, the survival is active: -6%.

Consider `COc1cccc(-c2ccnc3[nH]n(-c4ccccc4)c(=O)c23)c1`, for which the survival is inactive: 81%.

Take `CC(C)c1nnc(NC(=O)c2nc(S(=O)(=O)Cc3ccccc3)ncc2Cl)s1`: the survival is inactive: 55%.

Consider `Cc1ccc(NC(=O)c2ccc(F)c(S(=O)(=O)N3CCc4ccccc4C3)c2)cc1F`, for which the survival was inactive: 92%.

In the case of `COc1ccc2c(c1)c(=O)c(C(=O)c1ccc(Cl)cc1)cn2CC(=O)Nc1ccc2c(c1)OCO2`, the survival was inactive: 103%.

In the case of `CCN(Cc1ccccc1)C(=O)CCS(=O)(=O)c1ccc2c(c1)oc(=O)n2C`, the survival was inactive: 127%.

For the compound `O=C(Nc1ccccc1)C1CCN(C(=O)c2cccs2)CC1`, the survival is inactive: 121%.

Turning to `Cn1c(=O)n(CCCc2ccccc2)c(=O)c2c1nc1n2CCN1c1ccccc1`, the survival is inactive: 85%.

With `CCOC(=O)c1scc(-c2ccc(C)cc2)c1S(=O)(=O)Nc1ccc(F)c(F)c1`, the survival is inactive: 72%.

For the compound `CCOc1ccc(CCNC(=O)c2ccc3c(c2)N(Cc2cccc(Cl)c2)C(=O)c2ccccc2S3(=O)=O)cc1OCC`, the survival is inactive: 148%.

`Cc1c(Cl)cccc1NC(=O)NCCOCCn1c(=O)oc2ccccc21`: the survival is inactive: 84%.

Regarding `CCOC(=O)N1CCc2c(sc(NCc3sccc3C)c2C(=O)Nc2ccccc2OCC)C1`, the survival was inactive: 74%.

As to `CCOC(=O)c1ccc(NC(=O)CN2C(=O)CC(c3ccc(C)c(C)c3)=Nc3ccccc32)cc1`, the survival was inactive: 70%.

Turning to `Cc1cc(-c2nc3ccccc3s2)ccc1NC(=O)c1cc(Cl)ccc1Cl`, the survival was inactive: 92%.

`N#CC1=C(N)C(C#N)(C#N)C(c2cccs2)C2CN(C(=O)OCc3ccccc3)CC=C12` (stereo not drawn): the survival is inactive: 118%.

With `COc1ccc2c(C)c(CCC(=O)NCc3ccc(OC)c(OC)c3)c(=O)oc2c1`, the survival is inactive: 112%.

Regarding `COc1ccc2[nH]c(=O)c(C(c3nnnn3Cc3ccccc3)N3CCCC3)cc2c1` (stereo not drawn), the survival is inactive: 111%.

Regarding `Cc1sc(NC(=O)COc2ccc(C(C)(C)C)cc2)c(C(=O)OC(C)C)c1C`, the survival was active: 10%.

Take `CCOc1cc(C2c3c(oc4ccccc4c3=O)C(=O)N2Cc2ccccc2Cl)ccc1O` (stereo not drawn): the survival is inactive: 90%.

Take `CCc1ccc(N2C(=O)CS(=O)(=O)C23C(=O)N(Cc2ccccc2F)c2ccccc23)cc1` (stereo not drawn): the survival is inactive: 92%.

Consider `COc1ccc(C2CC(=O)c3c([nH]c(C(=O)OCCOc4ccccc4)c3C)C2)cc1OC` (stereo not drawn), for which the survival is inactive: 134%.

`CCn1cc(C(=O)N2CCN(c3ccccc3)CC2)c(=O)c2cc(S(=O)(=O)N3CCC(C)CC3)ccc21`: the survival was inactive: 84%.

Take `CCOc1ccc(NC(=O)c2cn3c4c(ccc(Cl)c4c2=O)OC(C)C3)cc1` (stereo not drawn): the survival was inactive: 82%.

Turning to `CCN1CCN(C(=O)c2cnn(-c3cccc(C)c3)c2C2CCN(C(=O)OC(C)(C)C)CC2)CC1`, the survival was inactive: 80%.

For `CNC(=O)Cc1nc2ccccc2[nH]1`, the survival was inactive: 108%.

On to `COc1cccc(CNC(=O)c2cccn2-c2nnc(N3CCCC3)s2)c1`, for which the survival was inactive: 88%.

Regarding `COc1cccc(NC(=O)C2CCN(S(=O)(=O)c3cc(-c4noc(C)n4)ccc3C)CC2)c1`, the survival is inactive: 124%.

Take `O=C(N=Nc1c(O)n(CN2CCCC2)c2ccccc12)c1ccccc1`: the survival is inactive: 110%.

For `COc1cc(-c2noc(-c3cc(C)[nH]n3)n2)cc(OC)c1OC`, the survival is inactive: 68%.

Regarding `Nc1nc2ccc(CCC(=O)O)cc2s1`, the survival was inactive: 95%.

As to `COc1ccc(CNC(=O)C2CCN(S(=O)(=O)c3cn(C)cn3)CC2)cc1`, the survival is inactive: 79%.

In the case of `COc1ccc(NC(=O)N(Cc2ccco2)C2CCN(C(C)=O)CC2)c(OC)c1`, the survival is inactive: 85%.

With `Cc1ccc(-c2noc(C3CC(=O)N(c4ccc5c(c4)OCCO5)C3)n2)cc1` (stereo not drawn), the survival is inactive: 64%.

Regarding `COc1ccc(-n2c(=O)c3sc4ccccc4c3n(Cc3ccccc3)c2=O)cc1`, the survival is inactive: 81%.

`CC(=O)c1cccc(NC(=O)Cn2c(C)c3cnn(-c4ccccc4)c(=O)c3c2C)c1`: the survival was inactive: 115%.

`Cc1ccc2c(CNC3CCC(C)CC3)c(C(=O)O)n(Cc3cccc(F)c3)c2c1` (stereo not drawn): the survival is inactive: 57%.

In the case of `CCN(CC)CCNC(=O)c1ccc2c(c1)N(Cc1ccccc1)C(=O)c1ccccc1S2=O` (stereo not drawn), the survival was inactive: 119%.

Turning to `Cc1cccc(C)c1NC(=O)CN(C)S(=O)(=O)c1ccc2c(c1)n(C)c(=O)c(=O)n2C`, the survival is inactive: 83%.

Take `CCc1ccc(OCC(=O)NCC(c2ccc(OC)cc2)N2CCOCC2)cc1` (stereo not drawn): the survival is inactive: 71%.

`CCSc1nc(=O)c2c(n1C)NC(=O)CC2c1ccc(O)cc1OC` (stereo not drawn): the survival was inactive: 95%.

Regarding `COc1ccc(C2CC(=O)N(CC(=O)Nc3ccc(C(F)(F)F)cc3)c3ccccc3S2)cc1` (stereo not drawn), the survival was inactive: 96%.

On to `COc1ccc(C(=O)Nc2ccc3nc(SCC(=O)N4CCOCC4)sc3c2)cc1`, for which the survival is inactive: 84%.

In the case of `COC(=O)c1ccc(OC)c(Cn2c(=O)n(-c3ccc(C)cc3)c(=O)c3c2cnn3C)c1`, the survival is inactive: 76%.

As to `O=C1C2C3C=CC(C3)C2C(=O)N1CCN1CCN(S(=O)(=O)c2cccs2)CC1` (stereo not drawn), the survival is inactive: 102%.

Regarding `COc1cc(NC(=O)c2cc3nc(-c4ccccc4)cc(-c4ccccc4)n3n2)c(OC)cc1Cl`, the survival is inactive: 79%.

With `COc1cc2c(cc1OC)C(c1ccc(F)cc1)N(c1ccc(F)cc1)C(=O)C2` (stereo not drawn), the survival is inactive: 119%.

For `CC1CCN(c2nc3ccc(C(=O)NCc4ccc(Cl)cc4)cc3s2)CC1`, the survival is inactive: 134%.

Consider `CCc1nn(CC(=O)NC2CC2)c(=O)c2cc3ccccc3n12`, for which the survival was inactive: 121%.

On to `O=C(Cn1c(=O)nc(-c2ccccc2)c2cc(Cl)ccc21)NCCCc1ccccc1`, for which the survival is inactive: 68%.

For the compound `Cn1cc(C(=O)NCc2ccccc2)c(=O)c2cc(S(=O)(=O)N3CCCCCC3)ccc21`, the survival is inactive: 133%.

With `COc1cccc(CNC(=O)c2c3c(nc4ccccc24)C(=O)N(C2CCCCC2)C3)c1`, the survival is inactive: 64%.

As to `Cc1ccc(C)c(CSc2nc3ccncc3n2Cc2nc(-c3ccccc3Cl)oc2C)c1`, the survival was inactive: 61%.

As for `Cn1c(N2CCN(S(=O)(=O)c3ccc(Cl)cc3)CC2)nc2ccccc21`, the survival is inactive: 98%.

As for `Cc1ccccc1Oc1nc2c(c(=O)n(C)c(=O)n2C)n1Cc1ccc(Br)cc1`, the survival is inactive: 125%.

Consider `Cc1ccc(CN2C(=O)C(C)(C)Oc3ccc(C(=O)NC4CC4)cc32)cc1`, for which the survival is inactive: 108%.

As to `O=C(Nc1ccc(OC(F)(F)F)cc1)NC1COc2ccccc2C1` (stereo not drawn), the survival is active: -3%.

On to `C=CCC(C#Cc1ccccc1)N(C)C` (stereo not drawn), for which the survival is inactive: 107%.

With `COc1cc(OC)c(NC(=O)c2cc(S(=O)(=O)N3CCCC3)cn2C)cc1Cl`, the survival was inactive: 87%.

For the compound `CC(NC(=O)CSc1n[nH]c(-c2ccccc2)n1)c1nc2ccccc2n1C` (stereo not drawn), the survival is inactive: 59%.

Regarding `Cc1ccc(S(=O)Cc2nc(-c3ccc(C(=O)NC(C)c4ccccc4)cc3)oc2C)cc1` (stereo not drawn), the survival is inactive: 92%.

`CCCCc1ccc(Nc2ncnc3c2cnn3-c2ccc(C)cc2)cc1`: the survival was active: -1%.

Take `CCC1CCCCN1C(=O)Cn1c(=O)n(CC2CCC(C(=O)NC)CC2)c(=O)c2sccc21` (stereo not drawn): the survival is inactive: 74%.

Turning to `COc1ccc(N2CCN(Cc3nc4c(c(=O)[nH]c(=O)n4C)n3Cc3ccccc3)CC2)cc1`, the survival was inactive: 116%.

For `Cn1c(=O)c2sccc2n2c(CCC(=O)NCc3ccccc3)nnc12`, the survival is inactive: 148%.

For `CC(C)=CC1C(C(=O)Nc2ccc(Cl)cn2)C1(C)C` (stereo not drawn), the survival is inactive: 113%.

Take `COC(=O)c1ccc(C(=O)OC)c(NC(=O)c2c(-c3ccccc3)c(-c3ccccc3)nn(C)c2=O)c1`: the survival is inactive: 90%.

On to `Cc1ccc2c(c1)nc(SCC(O)c1ccc(Br)cc1)n2C` (stereo not drawn), for which the survival was inactive: 83%.

On to `COc1ccc(Cl)cc1S(=O)(=O)Nc1cccc(-c2ccc(N3CCOCC3)nn2)c1`, for which the survival was inactive: 89%.

As to `O=C(/C=C/c1ccccc1)N1CCCC1=O`, the survival was inactive: 119%.

Consider `NC(=O)c1c(O)c2c([nH]c1=O)CCCC2`, for which the survival was inactive: 109%.

For the compound `COc1cccc(CCNc2ncnc3c2nnn3C)c1`, the survival is inactive: 84%.

For the compound `COc1cc2c(=O)n(CCC(=O)NCC3CCCO3)c(=O)n(CC(=O)Nc3c(C)cccc3C)c2cc1OC` (stereo not drawn), the survival is inactive: 71%.

On to `CCCCOC(=O)c1ccc(NC(=O)/C(C#N)=C/c2ccc(-c3ccccc3)o2)cc1`, for which the survival is inactive: 21%.

As to `O=C(NCc1ccc(F)cc1)c1cc2c(s1)-c1ccccc1SC2`, the survival is inactive: 50%.

Consider `COc1ccc(NC(=O)c2cc3c(=O)n(Cc4ccco4)ccc3nc2C)c(OC)c1`, for which the survival is inactive: 88%.

On to `O=C(CCCn1c(=O)c2ccccc2n(CC(=O)Nc2ccc(F)cc2F)c1=O)NCc1ccccc1Cl`, for which the survival was inactive: 113%.

As for `CC(=O)c1ccc(NC(=O)CSc2ccc3nc(-c4ccccc4)cn3n2)cc1`, the survival is inactive: 68%.

For the origin of these results see PubChem BioAssay AID463173 (ICCB-Longwood Screening Facility, Harvard Medical School, 2010).
